{
  "source": "ChEMBL document CHEMBL4888484",
  "about": "“Replenishing the malaria drug discovery pipeline: Screening and hit evaluation of the MMV Hit Generation Library 1 (HGL1) against asexual blood stage Plasmodium falciparum ,using a nano luciferase reporter read-out” (2022)",
  "note": "In all, about 150,000 compounds went through this assay and about 540 (0.36%) showed an effect of 50% or more. The list shows a part of the results.",
  "data": [
    {"tested_on": "Plasmodium falciparum", "assay": "Primary screen in NF54 nanoGlo assay, in single point, at 2uM, 72h; a lower Z score goes with more inhibition", "format": "functional, Erythrocyte", "conditions": "timepoint 72 hour", "units": {"% Inhibition": "%"}, "values": [
      {"smiles": "COc1cc(OC)cc(C(=O)NC(C)(C)CO)c1", "% Inhibition": -18, "Z score": 2.4},
      {"smiles": "CNCCCOc1ccc(C)cc1OC", "% Inhibition": -4, "Z score": 0.53},
      {"smiles": "Cc1nc(C)c(-c2cc(-c3ccc4c(c3)OCCO4)nc(N)c2C#N)s1", "% Inhibition": -4, "Z score": 0.7},
      {"smiles": "CCOc1nnc(CN2CCCC[C@@H]2Cn2cncn2)s1", "% Inhibition": -5, "Z score": 0.7},
      {"smiles": "Cn1cc(C(=O)N[C@@H]2C[C@H]2C2CCCCC2)c(C2CC2)n1", "% Inhibition": 15, "Z score": -1.96},
      {"smiles": "C[C@]1(CNS(=O)(=O)c2ccc(C(F)F)cc2)CCC(=O)N1", "% Inhibition": -8, "Z score": 1.09},
      {"smiles": "COc1cccc(C#N)c1NC(=O)COC[C@H]1CCCO1", "% Inhibition": -8, "Z score": 1.3},
      {"smiles": "COc1cc(OC)nc(NC2CC(F)(F)C2)n1", "% Inhibition": 0, "Z score": -0.05},
      {"smiles": "Cc1[nH]ncc1CCCNc1ccc(C(=O)N(C)C)cn1", "% Inhibition": -4, "Z score": 0.51},
      {"smiles": "c1ccc(-n2cnnc2[C@@H]2CCCCN2Cc2ccncc2)cc1", "% Inhibition": -1, "Z score": 0.16},
      {"smiles": "C[C@H](OC(=O)c1ccncc1)c1ccc(Cl)cn1", "% Inhibition": 10, "Z score": -1.06},
      {"smiles": "Cc1cc([C@H](O)c2cccnc2)nn1C", "% Inhibition": 0, "Z score": -0.03},
      {"smiles": "CCc1cc(CNC(=O)C[C@H]2C(=O)NCCN2CC2CCCCC2)on1", "% Inhibition": -3, "Z score": 0.47},
      {"smiles": "O=S1(=O)CC2(CCC(Nc3c[nH]nc3-c3ccccc3)CC2)C1", "% Inhibition": 7, "Z score": -0.89},
      {"smiles": "CCOC1CC(NC(=O)[C@@H](O)Cc2ccccc2)C12CCOCC2", "note": "(stereo not given in full)", "% Inhibition": -17, "Z score": 2.17},
      {"smiles": "CC(C)c1cnc(CNc2nnc(Cc3ccsc3)o2)s1", "% Inhibition": 3, "Z score": -0.4},
      {"smiles": "CCC1c2cccn2CCN1C(=O)CCC1(Cc2ccc(Cl)cc2)CCC(=O)N1", "note": "(stereo not given)", "% Inhibition": -7, "Z score": 1.46},
      {"smiles": "COCc1cn([C@H]2CO[C@H]3[C@@H]2OC[C@H]3O)nn1", "% Inhibition": 19, "Z score": -2.16},
      {"smiles": "c1ccc(Cc2nc3ncc4c(n3n2)CCCCC4)cc1", "% Inhibition": 5, "Z score": -0.7},
      {"smiles": "Cc1ncc(CO)c(CN2CCc3[nH]cnc3[C@@H]2Cc2ccccc2)c1O", "% Inhibition": 2, "Z score": -0.31},
      {"smiles": "CCCCn1c(N)c(N(Cc2ccco2)C(=O)C2CCN(C(C)=O)CC2)c(=O)[nH]c1=O", "% Inhibition": -7, "Z score": 1.02},
      {"smiles": "O=S(=O)(N[C@@H]1COc2ccccc2C1)c1ccc(Cl)s1", "% Inhibition": 12, "Z score": -1.62},
      {"smiles": "COc1ccccc1N1CCN(C(=O)Cn2cc(S(=O)(=O)Cc3cccc(Cl)c3)c3ccccc32)CC1", "% Inhibition": -3, "Z score": 0.43},
      {"smiles": "CCC(NC(C)C(=O)NC(=O)NC)c1ccc(C)cc1", "note": "(stereo not given)", "% Inhibition": -11, "Z score": 1.04},
      {"smiles": "Cc1cc(CNC(=O)c2nc[nH]c2C(F)(F)F)cc(C)n1", "% Inhibition": -9, "Z score": 1.72}
    ]}
  ]
}
